From patent US20250270341A1 (Alector, published 2025)

T1: Cyno CD98hc ECD Avi-His (cynomolgus macaque, UniProt P08195 105-529 (human entry))
T1 construct: biotinylated on the Avi tag where captured on streptavidin; also called Cyno CD98-AVI-His; Cyno CD98hc-AVI-His
T1 chain: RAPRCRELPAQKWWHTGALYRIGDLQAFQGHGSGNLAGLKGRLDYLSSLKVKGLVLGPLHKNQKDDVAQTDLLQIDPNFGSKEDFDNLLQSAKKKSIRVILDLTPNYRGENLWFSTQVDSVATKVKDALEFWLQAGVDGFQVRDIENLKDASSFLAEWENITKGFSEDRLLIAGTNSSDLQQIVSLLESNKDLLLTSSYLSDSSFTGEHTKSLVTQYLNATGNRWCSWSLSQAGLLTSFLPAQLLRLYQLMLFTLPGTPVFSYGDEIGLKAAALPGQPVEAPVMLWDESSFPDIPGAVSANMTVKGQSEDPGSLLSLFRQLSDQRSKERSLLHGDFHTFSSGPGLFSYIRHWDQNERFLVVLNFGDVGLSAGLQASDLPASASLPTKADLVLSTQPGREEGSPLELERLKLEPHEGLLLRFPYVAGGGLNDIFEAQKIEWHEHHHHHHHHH

T2: muCD98hc ECD Avi-His (mouse, UniProt P10852 100-526)
T2 construct: biotinylated on the Avi tag where captured on streptavidin; also called Mouse CD98-AVI-His; Mouse CD98hc-AVI-His
T2 sequence: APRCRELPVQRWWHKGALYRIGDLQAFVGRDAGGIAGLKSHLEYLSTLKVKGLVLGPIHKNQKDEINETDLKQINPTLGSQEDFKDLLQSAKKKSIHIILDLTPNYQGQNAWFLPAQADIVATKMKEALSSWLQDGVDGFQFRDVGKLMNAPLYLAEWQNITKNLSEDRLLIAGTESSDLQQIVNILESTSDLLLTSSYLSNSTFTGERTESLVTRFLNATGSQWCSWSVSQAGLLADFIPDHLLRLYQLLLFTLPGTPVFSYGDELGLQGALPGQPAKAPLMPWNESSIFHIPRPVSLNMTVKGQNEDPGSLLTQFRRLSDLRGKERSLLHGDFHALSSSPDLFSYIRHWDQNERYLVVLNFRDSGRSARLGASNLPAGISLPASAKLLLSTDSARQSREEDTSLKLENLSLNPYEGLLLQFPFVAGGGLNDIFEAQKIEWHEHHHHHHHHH

T3: huCD98hc ECD Avi-His (human, UniProt P08195 105-529)
T3 construct: biotinylated on the Avi tag where captured on streptavidin; also called Human CD98-AVI-His; Human CD98hc-AVI-His
T3 sequence: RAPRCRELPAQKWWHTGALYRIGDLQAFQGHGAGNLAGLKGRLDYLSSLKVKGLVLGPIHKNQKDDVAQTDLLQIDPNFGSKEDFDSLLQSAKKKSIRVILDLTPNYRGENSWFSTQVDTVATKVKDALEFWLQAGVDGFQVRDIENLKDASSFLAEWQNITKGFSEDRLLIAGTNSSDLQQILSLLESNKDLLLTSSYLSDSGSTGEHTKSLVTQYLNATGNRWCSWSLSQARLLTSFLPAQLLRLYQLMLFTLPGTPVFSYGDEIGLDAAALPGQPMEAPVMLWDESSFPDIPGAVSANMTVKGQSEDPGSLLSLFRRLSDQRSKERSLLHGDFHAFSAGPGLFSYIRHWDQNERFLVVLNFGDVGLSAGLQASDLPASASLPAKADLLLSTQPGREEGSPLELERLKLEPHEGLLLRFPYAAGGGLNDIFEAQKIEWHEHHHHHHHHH

B1: CD98hc.03.002 (2+1 bispecific antibody) (bispecific antibody)
heavy 1: EVRLLESGGGLVQPGGSLRLSCAASGFTFSNYAMGWVRQAPGKGLEWVSAISGSGGSTYYADSVKGRFTTSRDDSKNALYLQMNSLRAEDTAVYYCARGGPGWYAADVWGQGTTVTVSSASTKGPSVFPLAPSSKSTSGGTAALGCLVKDYFPEPVTVSWNSGALTSGVHTFPAVLQSSGLYSLSSVVTVPSSSLGTQTYICNVNHKPSNTKVDKKV[here human IgG1 Fc with changes without letters]GGGGSGGGGSGGGGSDVQLVESGGGLVQPGGSRKLSCAASGFTFSTFGMHWVRQAPEKGLEWVAYISGGSTNIYYADTVKGRFTISRDNPKNTLFLQMTSLRSEDTAMYYCARETTLLATNFDYWGQGTTLTVSSGGSEGKSSGSGSESKSTGGSDIQMTQTTSSLSASLGDRVTISCRASQDISNYLNWYQQKPDGTVKLLIYYTSRLHSGVPSRFSGSGSGTDYSLTISNLEQEDIATYFCQQGSTLPRTFGGGTKLEIK
heavy 2: EVRLLESGGGLVQPGGSLRLSCAASGFTFSNYAMGWVRQAPGKGLEWVSAISGSGGSTYYADSVKGRFTTSRDDSKNALYLQMNSLRAEDTAVYYCARGGPGWYAADVWGQGTTVTVSS[here human IgG1 constant region with changes without letters]
light: DIQMTQSPSSLSASVGDRVTITCRASQSISSYLNWYQQKPGKAPKLLIYAASSLQSGVPSRFSGSGSGTDFTLTISSLQPEDFATYYCQQADLPAFAFGGGTKVEIKRTVAAPSVFIFPPSDEQLKSGTASVVCLLNNFYPREAKVQWKVDNALQSGNSQESVTEQDSKDSTYSLSSTLTLSKADYEKHKVYACEVTHQGLSSPVTKSFNRGEC
B2: CD98hc.03.004 (2+1 bispecific antibody) (bispecific antibody)
heavy 1: EVRLLESGGGLVQPGGSLRLSCAASGFTFSNYAMGWVRQAPGKGLEWVSAISGSGGSTYYADSVKGRFTTSRDDSKNALYLQMNSLRAEDTAVYYCARGGPGWYAADVWGQGTTVTVSSASTKGPSVFPLAPSSKSTSGGTAALGCLVKDYFPEPVTVSWNSGALTSGVHTFPAVLQSSGLYSLSSVVTVPSSSLGTQTYICNVNHKPSNTKVDKKV[here human IgG1 Fc with changes without letters]GGGGSGGGGSGGGGSDVQLQESGPGLVKPSQSLSLTCTVTGYSITNNYAWNWIRRFPGNKLEWMAYISYSGYTSYNPSLKSRISITRDTSKNQFFLQLNSVTTEDTATYYCTGYFYYYGGGSFDYWGQGTTLTVSSGGSEGKSSGSGSESKSTGGSQAVVTQESALTTSPGETVTLTCRSSTGAVTTSNFANWVQEKPDHLFTGLIRGSNNRAPGVPARFSGSLIGDKAALTITGARTEDEAIYFCALWYSDHWVFGGGTKLTVL
heavy 2: EVRLLESGGGLVQPGGSLRLSCAASGFTFSNYAMGWVRQAPGKGLEWVSAISGSGGSTYYADSVKGRFTTSRDDSKNALYLQMNSLRAEDTAVYYCARGGPGWYAADVWGQGTTVTVSS[here human IgG1 constant region with changes without letters]
light: B1 light
B3: CD98hc.04.006 (2+1 bispecific antibody) (bispecific antibody)
heavy 1: EVRLLESGGGLVQPGGSLRLSCAASGFTFSNYAMGWVRQAPGKGLEWVSAISGSGGSTYYADSVKGRFTTSRDDSKNALYLQMNSLRAEDTAVYYCARGGPGWYAADVWGQGTTVTVSSASTKGPSVFPLAPSSKSTSGGTAALGCLVKDYFPEPVTVSWNSGALTSGVHTFPAVLQSSGLYSLSSVVTVPSSSLGTQTYICNVNHKPSNTKVDKKV[here human IgG1 Fc with changes without letters]GGGGSGGGGSGGGGSEVNLVESGGDLVQPGGSLRLSCATSGFTFTDYFMSWVRQPPGKALEWLGFIRNKAYGYTTEYSASVKGRFTISRDNSQSIFYLQMNTLRLEDSATYYCARGPFISTAPFAYWGQGTLVTVSAGGSEGKSSGSGSESKSTGGSDIVMSQSPSSLAVSVGETVTMSCKSSQSLLYSSNQKNYLAWYQQKPGQSPKLLIYWGSTRESGVPDRFTGSGSGTDFTLTISSVKAEDLAVYYCQHYYGYPWTFGGGTKLEIK
heavy 2: EVRLLESGGGLVQPGGSLRLSCAASGFTFSNYAMGWVRQAPGKGLEWVSAISGSGGSTYYADSVKGRFTTSRDDSKNALYLQMNSLRAEDTAVYYCARGGPGWYAADVWGQGTTVTVSS[here human IgG1 constant region with changes without letters]
light: B1 light
B4: CD98hc.04.010 (2+1 bispecific antibody) (bispecific antibody)
heavy 1: EVRLLESGGGLVQPGGSLRLSCAASGFTFSNYAMGWVRQAPGKGLEWVSAISGSGGSTYYADSVKGRFTTSRDDSKNALYLQMNSLRAEDTAVYYCARGGPGWYAADVWGQGTTVTVSSASTKGPSVFPLAPSSKSTSGGTAALGCLVKDYFPEPVTVSWNSGALTSGVHTFPAVLQSSGLYSLSSVVTVPSSSLGTQTYICNVNHKPSNTKVDKKV[here human IgG1 Fc with changes without letters]GGGGSGGGGSGGGGSQVQLQQSGAELMKPGASVKISCKATGYTFSTYWIEWVKQRPGHGLEWIGEILPGSGTTTYNEKFKGKATFTADTSSNTAYMQLSSLTSEDSAVYYCARRTVYYRYEGIDYWGQGTTLTVSSGGSEGKSSGSGSESKSTGGSQIVLTQSPAIMSASPGEKVTITCSASSSVSYMFWFQQRPGTSPKLWIYTTSNLASGVPARFSGSGSGTSYSLTISRMEAEDAATYYCQQKNNYPFTFGSGTKLEIK
heavy 2: EVRLLESGGGLVQPGGSLRLSCAASGFTFSNYAMGWVRQAPGKGLEWVSAISGSGGSTYYADSVKGRFTTSRDDSKNALYLQMNSLRAEDTAVYYCARGGPGWYAADVWGQGTTVTVSS[here human IgG1 constant region with changes without letters]
light: B1 light
B5: CD98hc.04.062 (2+1 bispecific antibody) (bispecific antibody)
heavy 1: EVRLLESGGGLVQPGGSLRLSCAASGFTFSNYAMGWVRQAPGKGLEWVSAISGSGGSTYYADSVKGRFTTSRDDSKNALYLQMNSLRAEDTAVYYCARGGPGWYAADVWGQGTTVTVSSASTKGPSVFPLAPSSKSTSGGTAALGCLVKDYFPEPVTVSWNSGALTSGVHTFPAVLQSSGLYSLSSVVTVPSSSLGTQTYICNVNHKPSNTKVDKKV[here human IgG1 Fc with changes without letters]GGGGSGGGGSGGGGSEVQLVESGGDLVKPGGSLKLSCTASRFAFSTYDMSWVRQTPEKRLEWVAYISSGGGSTYFPDTVKGRFTISRDNAKNTLYLQMSSLKSEDTAMYYCARQDGHYPWFPYWGQGTLVTVSAGGSEGKSSGSGSESKSTGGSDIVMSQSPSSLAVSVGEKVTMSCKSSQSLLYSGNQKTYLAWYQQKPGQSPKPLIYWASTRESGIPDRFTGSGSGTDFTLTISSVKAEDLAVYYCQQYYSYPPTFGAGTKLELK
heavy 2: EVRLLESGGGLVQPGGSLRLSCAASGFTFSNYAMGWVRQAPGKGLEWVSAISGSGGSTYYADSVKGRFTTSRDDSKNALYLQMNSLRAEDTAVYYCARGGPGWYAADVWGQGTTVTVSS[here human IgG1 constant region with changes without letters]
light: B1 light

Target: T1, Cyno CD98hc ECD Avi-His
Assay: ELISA, 1 ug/ml
Experimental: (§1) To determine binding retention of reformatted 2+1 anti-CD98hc bispecific antibodies by ELISA, high binding ELISA plates (Thermo Fisher) were coated with streptavidin (1 μg/ml, Thermo Fisher) overnight at 4° C. Plates were then washed three times with phosphate buffered saline with 0.05% tween-20 (PBST) and incubated with block buffer (PBS+1% BSA, 1 h, room temperature). Plates were washed three times again with PBST and incubated with biotinylated human, cyno, and mouse CD98hc and an irrelevant antigen, human transferrin receptor (1 μg/ml, 1 h, room temperature). Plates were washed three times again with PBST and incubated with anti-CD98hc antibodies (1 μg/ml, 1 h, room temperature). Plates were washed three times again with PBST and incubated with a secondary detection antibody, anti-human horseradish peroxidase conjugated antibody (1:5000 dilution, 30 min, room temperature). Plates were washed three times one last time and incubated with TMB-ELISA Substrate Solution (Thermo Fisher) and then quenched with H₂SO₄. Anti-CD98hc binding was then analyzed by quantifying optical density at 450 nm (OD₄₅₀) using the SpectraMax M5 (Molecular Devices). The binding characteristics of the various 2+1 anti-CD98hc bispecific antibodies to CD98hc (human, cyno, mouse) and control human TfR are summarized below in Table 16, shown as fold-change relative to isotype hIgG.

Going from B1 to B2, the “ELISA fold-change relative to isotype hIgG” value rises from 24.1 to 25.1.

Going from B3 to B4, the “ELISA fold-change relative to isotype hIgG” value rises from 24.4 to 29.2.

In the case of B5, the “ELISA fold-change relative to isotype hIgG” value is reported as 23.4.

target: T2, muCD98hc ECD Avi-His; assay: ELISA, 1 ug/ml
Experimental: as §1

Going from B1 to B3, the “ELISA fold-change relative to isotype hIgG” value rises from 1.6 to 2.3.

Compared with B4, B5 is higher in “ELISA fold-change relative to isotype hIgG” value: 1.2 for the first, 2.6 for the second.

target: T3, huCD98hc ECD Avi-His; assay: ELISA, 1 ug/ml
Experimental: as §1

Going from B1 to B2, the “ELISA fold-change relative to isotype hIgG” value rises from 25 to 28.5.

First: B3
Second: B4
The “ELISA fold-change relative to isotype hIgG” value of the first is higher: 27.9 for the first, 27.7 for the second.

With B5 the “ELISA fold-change relative to isotype hIgG” value was 26.

target: T4, Human TfR-AVI-His (control) (human, UniProt P02786); assay: ELISA, 1 ug/ml
T4 construct: control protein; also called Avi-His-tagged human TfR; human transferrin receptor
Experimental: as §1

T4 sequence (P02786 89-760 limits assumed): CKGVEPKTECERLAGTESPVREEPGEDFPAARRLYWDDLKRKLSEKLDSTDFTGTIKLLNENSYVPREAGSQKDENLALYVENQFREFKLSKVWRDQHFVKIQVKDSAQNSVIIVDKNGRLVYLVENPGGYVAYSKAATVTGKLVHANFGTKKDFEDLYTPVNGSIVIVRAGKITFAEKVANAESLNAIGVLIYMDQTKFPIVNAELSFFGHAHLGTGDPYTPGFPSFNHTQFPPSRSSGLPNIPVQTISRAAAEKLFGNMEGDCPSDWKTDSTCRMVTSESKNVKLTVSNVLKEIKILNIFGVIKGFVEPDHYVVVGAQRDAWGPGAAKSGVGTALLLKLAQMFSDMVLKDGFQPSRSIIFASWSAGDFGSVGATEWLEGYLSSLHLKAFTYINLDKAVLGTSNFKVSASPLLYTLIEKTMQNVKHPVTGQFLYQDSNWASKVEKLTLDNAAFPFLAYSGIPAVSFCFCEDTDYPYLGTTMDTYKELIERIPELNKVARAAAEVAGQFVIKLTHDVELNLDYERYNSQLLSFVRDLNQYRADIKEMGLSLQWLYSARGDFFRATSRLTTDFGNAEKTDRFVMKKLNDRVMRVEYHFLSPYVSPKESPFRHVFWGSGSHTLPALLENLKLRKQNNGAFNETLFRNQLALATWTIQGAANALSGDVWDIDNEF

Compared with B1, B2 is higher in “ELISA fold-change relative to isotype hIgG” value: 1.3 for the first, 1.5 for the second.
